From patent publication US8802826B2, “Anti-clusterin antibodies and antigen binding fragments and their use to reduce tumor volume” (Alethia Biotherapeutics Inc., priority 2009, dated 2014)

Biological target: T1, human clusterin (recombinant monomeric clusterin) (Homo sapiens, UniProt P10909)
T1 construct: Recombinant monomeric clusterin was immobilized on a CM3 chip with normal amine coupling method
Assay: BIAcore kinetic analysis of antibody binding to immobilized clusterin
Description: The purpose of these investigations is to determine the kinetics parameters of anti-clusterin antibodies. In particular, to determine whether the humanization of the 16B5 and 21B12 anti-clusterin monoclonal antibody affects the kinetics parameters of its binding to human clusterin. To this end, a kinetic analysis method was developed using the BIAcore 3000. Human clusterin was immobilized on a sensor chip. Full length antibodies or Fab fragments were injected and allowed to interact with the immobilized clusterin. This example described the exemplary antibody 16B5 but the 21B12 exemplary antibody was prepared and tested in a similar manner.
HBST (10 mM Hepes pH 7.4, 135 mM NaCl, 3.4 mM EDTA, 0.005% Tween 20) was used as running buffer for all BIAcore experiments. Recombinant monomeric clusterin was immobilized on a CM3 chip with normal amine coupling method at a flow of 5 μl/min. Surface was activated with 35 μl of a mixture of 50 mM NHS/0.2M EDC. Clusterin in 10 mM Na-acetate pH 4.5 was injected until a desired amount was captured (below 60RU). Unreacted esters were deactivated with 35 μL1 of 1M ethanolamine hydrochloride-NaOH pH8.5. A control surface was prepared by injecting NHS/EDC and ethanolamine in the same manner.
Kinetics analysis was conducted at a flow of 50 μl/min. Full length antibodies (mouse or humanized) or Fab were diluted in HBST. […]

T1 sequence (P10909 23-449): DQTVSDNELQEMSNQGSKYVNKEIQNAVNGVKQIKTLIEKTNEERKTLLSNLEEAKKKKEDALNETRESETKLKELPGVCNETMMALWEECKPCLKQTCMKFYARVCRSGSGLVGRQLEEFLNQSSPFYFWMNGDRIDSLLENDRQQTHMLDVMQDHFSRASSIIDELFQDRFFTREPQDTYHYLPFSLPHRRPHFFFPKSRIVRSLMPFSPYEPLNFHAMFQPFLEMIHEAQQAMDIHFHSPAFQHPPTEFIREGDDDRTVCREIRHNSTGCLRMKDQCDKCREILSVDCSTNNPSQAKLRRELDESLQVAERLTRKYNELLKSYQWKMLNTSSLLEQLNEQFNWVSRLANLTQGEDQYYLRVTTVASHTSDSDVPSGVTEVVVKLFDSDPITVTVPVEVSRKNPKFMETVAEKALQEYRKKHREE

- kinetics parameters compared with the parent mouse antibody (full length vs full length, Fab vs Fab): similar
- KD of the interaction with immobilized human clusterin (stated in words): low nM range
B1: h21B12: humanized anti-clusterin IgG2 antibody, heavy chain SEQ ID NO.:19 and light chain SEQ ID NO.:20 (antibody)
heavy: QVQLVQSGSELKKPGASVKVSCKASGYTFTNYGMHWVRQAPGQGLEWMGWINTYTGEPTYADDFKGRFVFSLDTSVSTAYLQISSLKAEDTAVYYCARDGFLYFFDYWGQGTLVTVSSASTKGPSVFPLAPCSRSTSESTAALGCLVKDYFPEPVTVSWNSGALTSGVHTFPAVLQSSGLYSLSSVVTVPSSNFGTQTYTCNVDHKPSNTKVDKTVERKCCVECPPCPAPPVAGPSVFLFPPKPKDTLMISRTPEVTCVVVDVSHEDPEVQFNWYVDGVEVHNAKTKPREEQFNSTFRVVSVLTVVHQDWLNGKEYKCKVSNKGLPAPIEKTISKTKGQPREPQVYTLPPSREEMTKNQVSLTCLVKGFYPSDIAVEWESNGQPENNYKTTPPMLDSDGSFFLYSKLTVDKSRWQQGNVFSCSVMHEALHNHYTQKSLSLSPGK
light: DIVMTQSPDSLAVSLGERATINCKSSQSLLYSSNQKNYLAWYQQKPGQPPKLLIYWASTRESGVPDRFSGSGSGTDFTLTISSLQAEDVAVYYCQQYYIYPRTFGQGTKLEIKRTVAAPSVFIFPPSDEQLKSGTASVVCLLNNFYPREAKVQWKVDNALQSGNSQESVTEQDSKDSTYSLSSTLTLSKADYEKHKVYACEVTHQGLSSPVTKSFNRGEC
modifications: Complete heavy chain immunoglobulin sequence for h21B12; Complete light chain immunoglobulin sequence for h21B12
